# Reference: article PMC4336329 (PLoS ONE, 2015)
# Hit rate of the full screen: of about 310,000 compounds, about 2,200 (0.71%) showed an effect of 50% or more. The effect is printed as a negative number. Some of the results follow.
# Molecular target: human ether-à-go-go-related gene (hERG) potassium channel (human, UniProt Q12809)
# Experiment: primary screen, population patch clamp on CHO cells stably expressing hERG
# Chain of human ether-à-go-go-related gene (hERG) potassium channel (Q12809 whole entry, looked up): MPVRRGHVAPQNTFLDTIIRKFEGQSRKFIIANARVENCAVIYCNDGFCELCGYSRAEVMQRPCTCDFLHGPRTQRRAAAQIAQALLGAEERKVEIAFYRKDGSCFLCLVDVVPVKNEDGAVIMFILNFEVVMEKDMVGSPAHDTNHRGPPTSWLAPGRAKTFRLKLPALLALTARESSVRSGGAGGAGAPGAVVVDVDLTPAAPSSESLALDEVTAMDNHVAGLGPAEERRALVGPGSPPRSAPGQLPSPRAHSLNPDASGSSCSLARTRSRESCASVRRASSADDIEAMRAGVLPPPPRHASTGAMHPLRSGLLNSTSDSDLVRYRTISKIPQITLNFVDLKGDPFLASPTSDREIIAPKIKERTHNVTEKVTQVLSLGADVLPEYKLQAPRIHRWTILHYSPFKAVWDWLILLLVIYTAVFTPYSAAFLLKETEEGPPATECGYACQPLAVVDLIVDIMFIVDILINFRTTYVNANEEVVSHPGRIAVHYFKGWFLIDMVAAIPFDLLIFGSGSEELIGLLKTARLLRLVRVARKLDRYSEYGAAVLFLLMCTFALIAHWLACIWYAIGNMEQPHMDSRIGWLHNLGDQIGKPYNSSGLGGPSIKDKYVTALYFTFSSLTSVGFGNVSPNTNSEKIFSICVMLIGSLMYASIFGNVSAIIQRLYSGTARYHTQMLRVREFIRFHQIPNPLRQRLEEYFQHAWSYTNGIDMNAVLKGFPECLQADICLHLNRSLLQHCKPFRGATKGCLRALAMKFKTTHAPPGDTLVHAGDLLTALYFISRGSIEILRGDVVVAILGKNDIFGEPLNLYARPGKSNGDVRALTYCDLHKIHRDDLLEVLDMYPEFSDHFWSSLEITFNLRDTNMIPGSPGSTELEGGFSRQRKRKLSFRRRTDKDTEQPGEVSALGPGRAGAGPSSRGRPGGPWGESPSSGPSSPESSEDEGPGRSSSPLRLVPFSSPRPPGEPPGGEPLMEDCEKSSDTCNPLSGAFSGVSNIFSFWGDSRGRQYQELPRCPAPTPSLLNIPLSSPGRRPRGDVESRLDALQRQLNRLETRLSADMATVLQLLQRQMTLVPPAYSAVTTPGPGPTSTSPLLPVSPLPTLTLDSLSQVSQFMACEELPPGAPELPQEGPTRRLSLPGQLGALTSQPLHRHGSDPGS
row,Compound,"hERG current change (%, negative = inhibition) at 1uM"
1,Cc1ccc(/C=N/NC(=O)c2ccc(Br)o2)s1,-0.912%
2,CN1CCCN(C(=O)COc2ccc(F)cc2F)CC1,13%
3,CNC(=S)N(CCc1c(C)[nH]c2ccc(Cl)cc12)Cc1cc(OC)c(OC)c(OC)c1,3.8%
4,Cc1ccc(N2CC(C(=O)NNC(=O)c3ccc(F)cc3)CC2=O)cc1 (centres unmarked),-1.31%
5,COc1cc(C)c(C(N)=O)c(OC)n1,14.4%
6,N#CC1=C2N=C(N)c3c(sc4c3CCCCC4)N2C2=C(C(=O)CCC2)C1c1ccccc1 (centres unmarked),8.01%
7,CCc1ccc(C(=O)Cn2ncc(Cl)c(Cl)c2=O)cc1,8.96%
8,COc1cccc(NC(=S)N(C)C2CCN(C)CC2)c1,11%
9,CCCCNC(=O)CNC(=S)N(Cc1ccccc1)Cc1cccs1,-1.02%
10,CCCCc1ccc(NC(=O)c2cnccn2)cc1,7.91%
11,CC(CCc1ccccc1)NC(=O)c1ccc(-n2cncn2)c([N+](=O)[O-])c1 (centres unmarked),-27.2%
12,CSc1nnc([C@H](Cc2c[nH]c3ccccc23)NC(=O)OC(C)(C)C)o1,9.8%
13,Cn1c(CN2CCCC(C(=O)c3ccc4c(c3)OCO4)C2)nc2ccccc21 (centres unmarked),-21.8%
14,COC(=O)[C@H](Cc1c[nH]c2ccccc12)NC(=O)Cc1c[nH]c2ccccc12,9.96%
15,FC(F)(F)c1cccc(N2CCN(c3nnnn3-c3ccccc3)CC2)c1,5.28%
16,Clc1ncc2[nH]cnc2n1,13.2%
17,O=C(Cc1ccccc1F)Nc1nc(-c2cccs2)cs1,2.28%
18,C/C(=N\NC(=O)C1CC1)c1cccnc1,9.94%
19,CCP(=S)(CC)c1ccc(N(C)C)cc1,14%
20,C=C(C)[C@@H]1CCC2(C(=O)O)CC[C@]3(C)[C@H](CC[C@@H]4[C@@]5(C)CCC(=O)C(C)(C)[C@@H]5CC[C@]43C)[C@@H]12 (some centres unmarked),6.31%
21,O=C(C1CCCN(c2ncnc3c2nc2n3CCCCC2)C1)N1CCN(c2ccccc2)CC1 (centres unmarked),-14.1%
22,NS(=O)(=O)c1ccc(Sc2ccc3c(c2)CCC3)nc1,13.9%

row,Compound,"hERG current change (%, negative = inhibition) at 1uM"
1,OCC1(CCOc2ccccc2)CCN(Cc2cc(Cl)ccc2O)CC1,-0.875%
2,COC(=O)c1ccccc1NC(=O)c1cnn2c(C(F)F)cc(C3CC3)nc12,7.98%
3,CC1C=CC(C)C(C(=O)O)C1C(=O)O (centres unmarked),17.3%
4,COc1cccc(NC=C2C(=O)OC(C)(C)OC2=O)c1,-3.51%
5,O=C(c1ccco1)N1CCN(Cc2c(F)cccc2Cl)CC1,4.47%
6,Cc1nc(NC(=O)c2ccccc2)sc1-c1csc(Nc2cccc(F)c2)n1,11%
7,O=C(c1ccccc1)N(Cc1ccccc1)Cc1ccccc1,9.35%
8,COc1cc(NS(=O)(=O)c2ccc(N/C=C\C(=O)c3ccc(OC)c(OC)c3)cc2)nc(OC)n1,11.4%
9,CCN(CC)S(=O)(=O)c1ccc2c(c1)nc(SCC(=O)N(C)C1CCS(=O)(=O)C1)n2CC (centres unmarked),8.33%
10,CCOc1ccc(-c2nnc(-c3ccccc3)n2-c2ccccc2)cc1,-3.47%
11,CCC1C(=O)NCCN1C(=O)c1ccc(OC)c(OC2CCN(C(C)=O)CC2)c1 (centres unmarked),11.7%
12,CC(C)Oc1ccc(C(CC(=O)O)c2ccc(F)cc2)cc1 (centres unmarked),8.35%
13,Cc1cc(C(N)=O)c2cc(Br)ccc2n1,7.63%
14,Cc1onc(-c2ccccc2Cl)c1C(=O)NC1CCS(=O)(=O)C1 (centres unmarked),3.87%
15,Cc1ccc([N+](=O)[O-])cc1N(CC(=O)NC1CCCC1)S(C)(=O)=O,17.8%
16,CC1CN(C(=S)c2cccc([N+](=O)[O-])c2)CC(C)O1 (centres unmarked),8.72%
17,COCCNC(=O)CCc1nnc(C2(c3ccc(Cl)cc3)CCC2)o1,16.3%
18,CCCCc1cc(=O)oc2c3c(cc(OCC(=O)NCCCO)c12)OC(C)(C)CC3,8.46%
19,O=C(CSc1nc2c(c(=O)[nH]1)CCC2)Nc1ccccc1Cl,2.71%
20,Cc1ccc(C(=O)OCC(=O)NC2CCCC2)cc1,14.6%
21,O=C(c1ccc(CNS(=O)(=O)c2ccc(Br)cc2)cc1)N1CCCCC1,14%
22,NS(=O)(=O)c1cccc(NC(=O)CN2CCc3ccccc32)c1,11.8%
